Results published in PMC4336329 (PLoS ONE, 2015).
The campaign covered roughly 310,000 compounds. About 14,000 (4.5%) showed an effect of 50% or more. The effect is printed as a negative number. The list shows a part of the results.

Molecular target: human ether-à-go-go-related gene (hERG) potassium channel (human, UniProt Q12809)
Assay: primary screen, population patch clamp on CHO cells stably expressing hERG
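Note: peak tail current of the secondary pulse compared with the same well before compound.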

Sequence of human ether-à-go-go-related gene (hERG) potassium channel (Q12809 whole entry, looked up): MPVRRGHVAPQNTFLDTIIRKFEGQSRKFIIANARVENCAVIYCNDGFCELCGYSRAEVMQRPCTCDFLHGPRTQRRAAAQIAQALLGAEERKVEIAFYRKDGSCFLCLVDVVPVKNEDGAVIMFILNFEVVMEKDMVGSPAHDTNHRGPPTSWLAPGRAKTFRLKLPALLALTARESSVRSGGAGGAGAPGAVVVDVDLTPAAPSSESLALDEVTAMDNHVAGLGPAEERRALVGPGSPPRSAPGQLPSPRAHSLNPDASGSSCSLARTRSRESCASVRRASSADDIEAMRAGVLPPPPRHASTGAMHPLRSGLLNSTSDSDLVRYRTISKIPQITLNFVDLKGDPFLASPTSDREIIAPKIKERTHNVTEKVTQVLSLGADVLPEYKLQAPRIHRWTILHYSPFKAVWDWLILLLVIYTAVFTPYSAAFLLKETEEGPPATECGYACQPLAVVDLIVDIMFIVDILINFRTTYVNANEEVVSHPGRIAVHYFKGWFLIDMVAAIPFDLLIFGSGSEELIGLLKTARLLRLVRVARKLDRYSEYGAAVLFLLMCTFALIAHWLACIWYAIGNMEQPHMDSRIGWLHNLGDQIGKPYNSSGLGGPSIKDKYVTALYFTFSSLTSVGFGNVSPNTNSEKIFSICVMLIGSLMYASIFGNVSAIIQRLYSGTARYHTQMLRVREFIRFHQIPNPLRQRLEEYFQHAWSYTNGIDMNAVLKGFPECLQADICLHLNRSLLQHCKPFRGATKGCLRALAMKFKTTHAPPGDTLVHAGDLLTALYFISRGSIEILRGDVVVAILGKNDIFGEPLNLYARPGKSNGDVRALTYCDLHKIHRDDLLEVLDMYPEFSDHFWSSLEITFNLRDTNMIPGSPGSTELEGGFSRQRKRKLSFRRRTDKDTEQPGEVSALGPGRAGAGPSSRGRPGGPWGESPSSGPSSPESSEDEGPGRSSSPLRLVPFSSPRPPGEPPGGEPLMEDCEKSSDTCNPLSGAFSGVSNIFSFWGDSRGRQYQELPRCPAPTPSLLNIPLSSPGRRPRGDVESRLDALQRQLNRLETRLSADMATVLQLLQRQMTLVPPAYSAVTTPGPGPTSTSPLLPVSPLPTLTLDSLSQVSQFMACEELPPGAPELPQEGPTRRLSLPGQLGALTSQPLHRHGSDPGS

Compound | hERG current change (%, negative = inhibition) at 10uM
O=[N+]([O-])c1ccc2nn(Cc3ccccc3)cc2c1 | -18.2%
O=C(NCC1CCCO1)c1cc2ccccc2oc1=O (stereo not drawn) | 9.43%
CCOC(=O)C1=C(Nc2ccccc2)CC(C)(O)C(C(=O)OCC)C1c1ccc(Cl)cc1 (stereo not drawn) | 10.7%
C=C(C)CNC(=S)Nc1ccc(S(=O)(=O)Nc2cnc3ccccc3n2)cc1 | 8.21%
Cc1cccc(Nc2c([N+](=O)[O-])ccc3nonc23)c1 | 32.4%
O=[N+]([O-])c1ccc(Sc2cccc3cccnc23)c([N+](=O)[O-])c1 | 16.6%
Cc1c(NC(=O)c2cc(-c3ccc(Cl)cc3)on2)c(=O)n(-c2ccccc2)n1C | -55.1%
CC(=NCCN1CCOCC1)C1=C(O)c2ccccc2C1=O | 7.99%
O=c1[nH]c2c(s1)C(c1ccco1)C1C3CCC(C3)C1S2 (stereo not drawn) | 5.92%
Cc1c(C(=O)NC2CC(=O)N(c3ccc4c(c3)OCCO4)C2)cccc1[N+](=O)[O-] (stereo not drawn) | 0.354%
Cl.Nc1ccc(N2CCN(CCCCN3C(=O)C4CCCN4C3=O)CC2)cc1.O (stereo not drawn) | -9.33%
Cl.OCCN1CCN(CC(O)COCC2COc3ccccc3O2)CC1 (stereo not drawn) | 33.4%
CCOc1ccc(Nc2nc(N)nc(CN(C)C3CCCCC3)n2)cc1 | -71.5%
Cc1nc(-c2cccc(S(=O)(=O)N3CCOCC3)c2)cs1 | -2.11%
CC(=O)Nc1ccc(NC(=O)c2c(C)noc2C)cc1 | 22.4%
CCOC(=O)c1c(N)c(C#N)c2n1CCCC2 | -10.3%
CNC(=O)c1ccsc1NC(=O)C1CCCN1S(=O)(=O)c1cccs1 (stereo not drawn) | 7.6%
CCOC(=O)C1Cn2c(nc3c(c2=O)C(C)(C)Cc2ccccc2-3)S1 (stereo not drawn) | -0.972%
Cc1ccc(CNC(=O)CCS(=O)(=O)c2ccc3c(c2)CC(C)N3C(=O)C2CC2)o1 (stereo not drawn) | 11.3%

Compound | hERG current change (%, negative = inhibition) at 10uM
CCN(CC)C(=O)C1CCCN(Cc2ccc3c(c2)OCO3)C1 (stereo not drawn) | 10%
COc1ccc(/C=N/NC(=O)c2ccc(Br)cc2)cc1CN1CCOCC1 | -64.8%
COCCNC(=O)C(c1ccc(C)o1)N(Cc1ccco1)C(=O)c1snc(C(N)=O)c1N (stereo not drawn) | 4.68%
Cc1sc2ncn(CC(=O)NCCc3ccccc3)c(=O)c2c1C | -2.56%
CC1=C(C(=O)OCc2ccccc2)C(c2ccco2)n2ncnc2N1 (stereo not drawn) | -11.4%
O=C(NCc1ccc2c(c1)OCO2)c1cc(-c2ccc(Cl)cc2Cl)on1 | 8.81%
O=C(NCc1ccc(Cl)cc1)C1CCC(CNS(=O)(=O)c2ccccc2)CC1 (stereo not drawn) | 1.89%
CCOc1ccc(-c2cc(C(=O)N/N=C(\C)c3cccnc3)c3ccccc3n2)c(OCC)c1 | 22%
N#Cc1nc(-c2ccc(OCc3ccccc3)cc2)oc1N1CCC(C(N)=O)CC1 | 5.99%
COc1ccc(S(=O)(=O)N(CCc2ccccc2)CC(N)=O)cc1 | -32.4%
CC(C)NC(=S)N(C)C1(c2ccccc2Cl)CCCCC1=O (stereo not drawn) | 0.189%
CCCCCNC(=O)CSC1=N/C(=C\c2ccc(Cl)c(Cl)c2)C(=O)N1CC | 1.42%
Br.C[C@@H]1NCCc2cc(O)c(O)cc21 | 14.9%
CS(=O)(=O)N1CCN(c2ccc([N+](=O)[O-])c(NCCN3CCOCC3)c2)CC1 | -1.21%
Cl.O=C(NCCN1CCOCC1)C12CC3CC(C1)CC(c1ccccc1)(C3)C2 | 0.719%
O=C(c1cc(-c2cccnc2)nc2ccccc12)N1CCC2(CC1)OCCO2 | -4.27%
CCCn1nc(C(=O)OCC(=O)Nc2cccc(OC)c2)c2ccccc2c1=O | 3.96%
CCCCC(=O)N=c1sc2c(OC)ccc(OC)c2n1C | 20.1%
O=C(CN1C(=O)C2C3C=CC(C3)C2C1=O)NCC1COc2ccccc2O1 (stereo not drawn) | 4.22%

Compound | hERG current change (%, negative = inhibition) at 10uM
COc1ccc(OC)c(-n2c(O)c(C=NCCN3CCNCC3)c(=O)[nH]c2=S)c1 | 20.4%
CCOc1ccc(NC(=O)c2cnsn2)cc1 | 8.76%
O=S1(=O)N=C(N(CCO)/N=C/c2ccc(Br)cc2)c2ccccc21 | 15%
O=C(NCc1ccc2c(c1)OCO2)C1CCCN1S(=O)(=O)c1ccc(F)cc1 (stereo not drawn) | -22.5%
Cc1cccc(NC(=O)C2CCCN(c3nc(C)cc(C)n3)C2)c1 (stereo not drawn) | -11.2%
O=[N+]([O-])c1ccc(NCCO)c2ncccc12 | 2.11%
Cc1ccc(S(=O)(=O)N(C)C)cc1NC(=O)c1ccc(OC(F)(F)F)cc1 | -51.3%
COc1cccc(NC(=S)NCc2ccc(F)cc2)c1 | -4.25%
COc1ccc(-c2nnc(SCC(=O)NCC3CCCO3)n2C)cc1 (stereo not drawn) | 9.8%
Cc1c(Cl)cccc1NC(=O)C1COc2ccccc2O1 (stereo not drawn) | 8.79%
Cc1cccnc1NC(=O)c1ccc(S(=O)(=O)NCc2ccco2)cc1 | 10.5%
N#Cc1cccnc1N1CCC(C(N)=O)CC1 | 12.5%
O=C(Cn1cc([N+](=O)[O-])cn1)Nc1nccs1 | 9.77%
COC(=O)C(C)Oc1ccc(-c2nccc(-c3ccc(F)cc3)n2)cc1 (stereo not drawn) | 23.1%
COC(=O)c1ccc(/C=C2\CCn3c2nc2cc(C(=O)O)ccc2c3=O)cc1 | 8.8%
COc1ccc(NC(=O)CSc2nc3[nH]c(=O)[nH]c(=O)c3s2)cc1OC | 25.9%
CC(C)(C)NC(=O)NC(=O)COC(=O)CNS(=O)(=O)c1ccc(Br)cc1Cl | 51.6%
C=Cn1ccnc1P(=S)(c1ccn(C)c1)c1nccn1C=C | 5.65%
COc1ccc(S(=O)(=O)N2CCc3ccccc32)cc1C(=O)Nc1ccc(C(N)=O)cc1 | 9.8%
